Assay results from the supplement of paper PMC3334620.
The full ranking holds about 33,000 sequences; the median of “E-score (-0.5 to 0.5)” is about -0.043, and the highest 2% start at about 0.37. The list shows a part of the results.

What follows are sequences tested against T1, Upc2 (UniProt Q12151) (assay: PBM E-score (8-mer binding enrichment) (E-score (-0.5 to 0.5)); higher = stronger / more preferred TF binding; most listed sequences are background and not binding sites). Conditions: protein concentration: 200 nM; construct: GST-full length.
T1 sequence: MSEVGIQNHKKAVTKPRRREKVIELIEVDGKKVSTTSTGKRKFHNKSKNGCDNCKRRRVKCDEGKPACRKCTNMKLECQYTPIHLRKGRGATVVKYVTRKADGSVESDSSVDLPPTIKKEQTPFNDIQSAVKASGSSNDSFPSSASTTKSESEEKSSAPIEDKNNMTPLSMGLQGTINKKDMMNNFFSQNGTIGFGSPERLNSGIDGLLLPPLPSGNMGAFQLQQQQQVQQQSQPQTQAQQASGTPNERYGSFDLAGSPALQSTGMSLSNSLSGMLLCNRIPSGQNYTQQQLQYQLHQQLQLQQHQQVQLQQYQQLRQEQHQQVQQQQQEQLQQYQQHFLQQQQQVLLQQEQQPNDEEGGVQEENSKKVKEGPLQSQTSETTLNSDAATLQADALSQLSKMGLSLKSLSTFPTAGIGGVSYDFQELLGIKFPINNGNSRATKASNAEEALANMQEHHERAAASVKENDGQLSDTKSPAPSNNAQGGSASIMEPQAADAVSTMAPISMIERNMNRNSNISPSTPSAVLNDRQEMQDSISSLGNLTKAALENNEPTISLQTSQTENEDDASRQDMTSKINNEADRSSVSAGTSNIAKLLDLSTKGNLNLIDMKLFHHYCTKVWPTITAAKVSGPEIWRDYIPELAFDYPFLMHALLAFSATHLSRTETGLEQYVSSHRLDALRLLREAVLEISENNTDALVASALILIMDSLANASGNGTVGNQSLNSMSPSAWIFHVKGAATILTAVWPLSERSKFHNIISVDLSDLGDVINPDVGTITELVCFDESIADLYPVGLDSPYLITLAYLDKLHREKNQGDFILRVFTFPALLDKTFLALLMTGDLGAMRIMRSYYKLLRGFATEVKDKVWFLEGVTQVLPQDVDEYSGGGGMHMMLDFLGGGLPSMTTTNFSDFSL
In short: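 Bound GST-tagged yeast transcription factors, applied at about 100-200 nM to double-stranded universal all-10-mer Agilent arrays, were detected with fluorescent anti-GST. Scans were normalised with masliner. A modified Wilcoxon-Mann-Whitney statistic, the E-score, was assigned to each ungapped eight-base word pooled with its reverse complement by the Universal PBM Analysis Suite.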

In order of falling “PBM E-score” value:
1. TCGTACCA  0.476
2. CTACGATA  0.31
3. TCGCTCAA  0.285
4. ACGATACA  0.279
5. AAATTCGT  0.277
6. GATACGCA  0.276
7. AGCAACGA  0.263
8. GAACGGCC  0.255
9. GTTCGCTA  0.229
10. ACGTATGC  0.228
11. TCGCAAAA  0.216
12. ATGCGTTC  0.204
13. ATAAAAGA  0.204
14. AATAACGG  0.203
15. CTTACCGA  0.203
16. TCGCGAGA  0.2
17. ACGCAGAT  0.197
18. AGTGCACG  0.186
19. GCGTCGGA  0.177
20. AGACTGTA  0.177
21. ACGGATTA  0.171
22. CGGTTTAG  0.161
23. CGAAACCG  0.152
24. CTCGATAC  0.145
25. GTTCTTTA  0.145
26. GCCGTTAC  0.141
27. GTGAACAA  0.128
28. CGATTGCC  0.126
29. TAAGAACA  0.125
30. ATTTTTAA  0.123
31. GAGCAGGA  0.116
32. ATGTCAAC  0.108
33. ATATATAG  0.106
34. AACTAGCT  0.101
35. CGATGGTA  0.1
36. ATATATGC  0.0988
37. CTGTGCAC  0.0952
38. ACGCGCCA  0.0919
39. CAACTATC  0.0913
40. GGCGATAC  0.0891
41. ACTCTGGA  0.0882
42. TCGCGACA  0.0843
43. AACGCTGA  0.0761
44. AAGTCCTA  0.0708
45. AGCTTATA  0.0662
46. CGCCGCAA  0.0649
47. TAAACACA  0.0639
48. CTATACAC  0.0512
49. AGATAGTG  0.0466
50. AATGTGAA  0.0387
51. AGATAGAC  0.038
52. AGCTACGG  0.0336
53. ACGCTTGG  0.0331
54. AGGATCCG  0.0293
55. GGGCGTAA  0.0283
56. ACCCCGAA  0.0282
57. TCTAATAA  0.0272
58. ACTATAGG  0.0267
59. AATGAAAA  0.0243
60. CAATATGC  0.0202
61. CGCAGGAA  0.0186
62. TCCAGCAA  0.017
63. TACTTAAA  0.0169
64. CGCGCATC  0.0134
65. ATCGCGTC  0.011
66. AAAAATGA  0.0107
67. GCCTCGAA  0.00343
68. CAGCGGCG  0.0015
69. AAGTGTAT  0.00114
70. AGCAAAAG  0.00111
71. CAAAGTAG  -0.00091
72. AATGGGCA  -0.00586
73. ATTCATGC  -0.00825
74. AGGTTCGA  -0.0107
75. GACGATGC  -0.0158
76. GAATCAGA  -0.0159
77. ACGCTTGC  -0.0193
78. TAGGCCTA  -0.0194
79. GCTCTAAA  -0.0245
80. GTGGCGCA  -0.0284
81. CCCGGTAA  -0.0292
82. AACCTCAC  -0.0292
83. TGTAAAAA  -0.0321
84. GCTACCAA  -0.0323
85. ACTTCACC  -0.0347
86. AATCTTTA  -0.037
87. GATCAACC  -0.0371
88. AATCTGTC  -0.0441
89. ACAGTATC  -0.0504
90. ACAAAGCC  -0.0509
91. ACTGTCGG  -0.0529
92. CCACCACG  -0.0532
93. GCGTTGCA  -0.0573
94. CTACTTGC  -0.0629
95. ACTACTAA  -0.0634
96. ACCCTGAA  -0.0634
97. ATCACGTC  -0.0638
98. AGTCGGAA  -0.0651
99. ATGTTCCA  -0.0665
100. CCTATCAA  -0.0671
101. CGCTCCTA  -0.0684
102. GCAACACC  -0.0716
103. AGCAGAAT  -0.0745
104. CTGGCCTC  -0.0796
105. CTAAACCA  -0.0817
106. AAGGGTGG  -0.0817
107. AAACAGGG  -0.0849
108. AATGATTG  -0.0849
109. AAAGACGC  -0.0878
110. ATAAGGAG  -0.088
111. GACGGACC  -0.0885
112. AGCTAACT  -0.089
113. AGAATTTA  -0.0894
114. AGAGGACG  -0.0919
115. CCGTCCAC  -0.0949
116. CCTGCCAA  -0.0976
117. CAGGATGA  -0.0985
118. CCACCCAA  -0.11
119. GGGTGACA  -0.11
120. AGGTTATC  -0.112
121. ACCATCAG  -0.114
122. AGTCAAGC  -0.119
123. ATTGAGGA  -0.13
124. CAACAAGG  -0.135
125. AATCTCCA  -0.135
126. ATGAATAA  -0.137
127. GCTATGGA  -0.141
128. CCAGTCTC  -0.142
129. AGATCGGG  -0.148
130. GCCACAGA  -0.149
131. ACTGCGCT  -0.152
132. TCCTGAAA  -0.153
133. AATGATGA  -0.154
134. CATTGGAA  -0.156
135. AGGCTTCA  -0.158
136. CCCTGAGC  -0.158
137. CAAGATTC  -0.161
138. TATCTCCA  -0.164
139. GCCAAGCC  -0.168
140. AGTGCTAG  -0.172
141. ATCTGGGA  -0.175
142. AAGCATGA  -0.186
143. CAAGGGCG  -0.188
144. CCTAGAAA  -0.189
145. CTCCTTCC  -0.19
146. CCTCTAAG  -0.19
147. ACACAGTG  -0.192
148. AGGGAACT  -0.193
149. GGCAAGAA  -0.193
150. ATATCATC  -0.194
151. AGGTTTTA  -0.199
152. CTCCATCA  -0.199
153. CTGAATTC  -0.199
154. GCCGCGCC  -0.201
155. CCAGGGGA  -0.202
156. CTGCTTGA  -0.208
157. CCTAGAAG  -0.208
158. CCTATTCC  -0.219
159. ACTTGACT  -0.223
160. CTCCTGTC  -0.224
161. AATGGTGG  -0.224
162. GGTGGCAC  -0.236
163. GGGGCACA  -0.238
164. AAAGCCTG  -0.249
165. CGGGGGAC  -0.255
166. ACTGGAGG  -0.267
167. ATAGGGAC  -0.271
168. CAAAGGAC  -0.28
169. CTGGGATA  -0.289
170. ATCGGAGA  -0.292
171. AGCCACCA  -0.294
172. ACTACCCC  -0.325
